About 540 (0.36%) of roughly 150,000 compounds showed an effect of 50% or more. The list shows a part of the results.
What follows are compounds tested on Plasmodium falciparum (assay: Primary screen in NF54 nanoGlo assay, in single point, at 2uM, 72h; a lower Z score goes with more inhibition). Details: timepoint 72 hour.
Type: functional, Erythrocyte

SMILES | % Inhibition [%] | Z score
COC[C@@](C)(C#N)NC(=O)c1ccsc1 | -10 | 1.03
Cn1cc(C2OCCC2CNCc2csc(C3CC3)n2)cn1 (stereo unspecified) | 1 | -0.14
CC(=O)N[C@H]1C[C@H]2CN(Cc3cc(Cl)ccc3F)CC(=O)N2C1 | -20 | 1.78
C#CCCC1(CCC(=O)N2CCc3cc(OC)c(Cl)cc3C2)N=N1 | 1 | -0.16
CC1OC(C)C(C(=O)Nc2ccc3c(n2)OCCO3)C1C (stereo unspecified) | -16 | 2.38
CCNc1cnc(-c2noc([C@@H]3CCO[C@H]3c3ccnn3C)n2)cn1 | -7 | 1.28
O=C(Cc1ccccc1)NC[C@H]1CCCN(c2nnnn2-c2ccccc2)C1 | -3 | 0.38
COCC1(C(=O)N2CCC(n3cc(C(=O)NCC(C)C)nn3)CC2)CCC1 | -1 | 0.13
CN(C)C[C@H]1CN(Cc2cnn(-c3ccccc3)n2)CCO1 | -10 | 1.47
Cc1cccc(OCC(=O)N[C@H]2CCCN(c3ccc(=O)n(CC4CC4)n3)C2)c1 | -9 | 1.2
CC1(O)CN(S(=O)(=O)c2cccnc2)C1 | 3 | -0.44
O=C(O)c1cccc(-c2ccc(CNC3CCCCC3)o2)c1 | -24 | 2.74
O=S(=O)(Cc1ccccc1)N1CCC(NCc2ccccn2)CC1 | 2 | -0.36
COc1ccc(CN(C(=O)C2=CCCCO2)c2ccncc2)cc1 | -11 | 1.41
C=CCn1nnc(NC(=O)c2ccc3c(c2)OCCO3)n1 | 0 | -0.04
CC(C)C(=O)NCC1CCCC1NC(=O)OC(C)(C)C (stereo unspecified) | 4 | -0.55
Cc1csc(NC(=O)c2ccc3nc(-n4c(C)ccc4C)sc3c2)n1 | -1 | 0.2
Cc1ccc(CN2CCC[C@](CC3CC3)(C(N)=O)C2)o1 | -8 | 1.06
CC(C)(C)c1ccc(C(=O)Nc2nnc(-c3ccc4c(c3)OCO4)s2)cc1 | 3 | -0.34
O=C(Cn1ccc(-c2cccc(-c3nccs3)c2)n1)NCc1ccco1 | -3 | 0.36
O=C(NCCc1ccccc1)c1ccc(-n2cncn2)nn1 | -15 | 1.91
O=C(Nc1cccnc1)[C@H]1CCCN(S(=O)(=O)Cc2ccc(Cl)cc2)C1 | -2 | 0.3
Cc1cc(C2CCC(C(=O)NCc3ccco3)CN2C(=O)C2CCCC2)ccc1F (stereo unspecified) | -10 | 1.69
CC[C@@H]1CN(C(=O)c2cnc(C(C)C)[nH]c2=O)CC[C@]1(C)O | 7 | -0.94
Cc1ccc(S(=O)(=O)Nn2nnc(-c3ccccc3)c2C)cc1 | -14 | 1.86
O=S(=O)(c1ccc(F)cc1)N1CCN(c2ncnc3c2cnn3-c2ccc(F)cc2)CC1 | -7 | 0.63
O=C(CCc1n[nH]c(Cc2ccc3c(c2)OCO3)nc1=O)NCCOc1ccccc1 | -10 | 1.7

SMILES | % Inhibition [%] | Z score
O=C(Cn1cncn1)Nc1cnn(C[C@H]2COc3ccccc3O2)c1 | -4 | 0.53
NS(=O)(=O)c1ccc(Cn2ccnc2[C@H]2CCOC2)cc1 | -8 | 1.08
O=C1NC2(CCCC2)C(=O)N1CC(=O)N1CCCc2ccccc21 | -8 | 1.37
O=C(Cn1nccn1)N1CCC(c2nc3ccccc3o2)CC1 | -12 | 2.06
Cn1cnn(CC(=O)N2CCN(S(=O)(=O)c3ccc4ccccc4c3)CC2)c1=O | 1 | -0.08
CC[C@H](C)NS(=O)(=O)Cc1ccc(Br)cc1 | -7 | 1.23
O=C(Nc1ccccc1)N1CCCCC[C@H]1c1ccccc1Cl | 1 | -0.15
CN1C(=O)CC[C@H]1C(=O)Nc1cc(Cl)cc2cn[nH]c12 | -3 | 0.41
CCCN(CC(=O)NC)Cc1nc(CC)cc(N(CCC)CC(=O)NC)n1 | 3 | -0.6
Cc1cc(N2Cc3ncccc3C2=O)ccc1N1CCCC1=O | -10 | 1.55
CS(=O)(=O)N1CCC(c2nnc3sc(-c4cccc5cccnc45)nn23)CC1 | -8 | 1.2
O=C1C[C@H](c2ccc3c(c2)OCO3)c2cnn(Cc3ccc4c(c3)OCO4)c2N1 | -14 | 1.78
CC(C)CCn1c2c(c(=O)[nH]c1=O)[C@H](C(=O)Nc1ccc(OC(F)(F)F)cc1)CC(=O)N2 | 8 | -0.99
C[C@H](NC(=O)c1cccn1C1CC1)c1cnn(C)c1 | -7 | 1.24
CCOC(=O)[C@@]1(C(C)C)CCN(C(=O)c2csnc2C)C1 | -8 | 0.82
C[C@@H](C(=O)Nc1ccc(F)cc1)N1CCC(NS(=O)(=O)c2cccs2)CC1 | 32 | -3.04
Cc1ccccc1C(=O)N1C(C(=O)NC(C)c2ccccc2)COC12CCN(C(=O)CC(C)(C)C)CC2 (stereo unspecified) | -5 | 0.47
O=C(NCCc1ccc2c(c1)OCO2)[C@@H]1C[C@@H](NCC2CCCCC2)CN1Cc1cccc(Cl)c1 | -13 | 1.64
CN(C)S(=O)(=O)CCNC(=O)Nc1ccc(Cl)cc1C(F)(F)F | -8 | 1.16
COc1nc(-c2ccc(C(F)(F)F)cc2)n(-c2ccc(NC(=O)c3ccc(F)cc3)cc2)n1 | 5 | -0.6
COc1ccc(S(=O)(=O)N2C[C@H]3CC=CC[C@H]3C2)cc1Cl | -6 | 1.01
Oc1cc(-c2cccc(Cl)c2)cc2c1OCCNC2 | 3 | -0.44
CC1CCCCN1C(=O)CN1CCN(C(=O)[C@H]2C[C@@H]2c2cccnc2)CC1 (stereo partly specified) | -8 | 1.67
O=C(NCCc1ccc(Cl)cc1)c1c(O)c2c([nH]c1=O)CCCC2 | 13 | -1.97
O=C1CC[C@@]2(CCCN(c3ccccn3)C2)CN1Cc1ccccc1 | -1 | 0.11
CCN1CC[C@H](NC(=O)c2nc(C3CC3)ncc2Br)C1 | 1 | -0.16
